Results taken from PubChem BioAssay AID1159614 (National Center for Advancing Translational Sciences (NCATS), 2016).
Out of some 45,000 compounds screened, about 65 (0.1%) were called active. Calls follow the shape of the dose curve; as a rule, active = well fitted activation curve with a large enough effect; inconclusive = small, poorly fitted or top-dose-only effect; inactive = no such curve, though single readings can be large or run the other way. This is one part of the list.

These compounds were tested against Galactocerebrosidase (Homo sapiens) (UniProt P54803) (assay: A Novel Cell-Based Assay to Identify Small Molecules for B -Galactocerebrosidase). Conditions: 145M-Twi-hGALC-G270D cells (Twitcher mouse brain line with human GALC G270D), HMU-beta-Gal fluorescence, 48 h; series mostly up to 57.5 µM; activation: at the top concentration.
How it was run: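 Mutant human GALC (G270D), stably expressed in a Twitcher mouse brain cell line lacking endogenous GALC, is measured in live-treated cells via 6-hexadecanoylamino-4-methylumbelliferyl-β-galactoside hydrolysis (0.1 mM final, pH 5.2) with fluorescent detection.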
Also: 0% is about no effect; nearly all actives have a fitted effect of over 65% in size.

Chain of UniProt P54803 (P54803 whole entry, looked up): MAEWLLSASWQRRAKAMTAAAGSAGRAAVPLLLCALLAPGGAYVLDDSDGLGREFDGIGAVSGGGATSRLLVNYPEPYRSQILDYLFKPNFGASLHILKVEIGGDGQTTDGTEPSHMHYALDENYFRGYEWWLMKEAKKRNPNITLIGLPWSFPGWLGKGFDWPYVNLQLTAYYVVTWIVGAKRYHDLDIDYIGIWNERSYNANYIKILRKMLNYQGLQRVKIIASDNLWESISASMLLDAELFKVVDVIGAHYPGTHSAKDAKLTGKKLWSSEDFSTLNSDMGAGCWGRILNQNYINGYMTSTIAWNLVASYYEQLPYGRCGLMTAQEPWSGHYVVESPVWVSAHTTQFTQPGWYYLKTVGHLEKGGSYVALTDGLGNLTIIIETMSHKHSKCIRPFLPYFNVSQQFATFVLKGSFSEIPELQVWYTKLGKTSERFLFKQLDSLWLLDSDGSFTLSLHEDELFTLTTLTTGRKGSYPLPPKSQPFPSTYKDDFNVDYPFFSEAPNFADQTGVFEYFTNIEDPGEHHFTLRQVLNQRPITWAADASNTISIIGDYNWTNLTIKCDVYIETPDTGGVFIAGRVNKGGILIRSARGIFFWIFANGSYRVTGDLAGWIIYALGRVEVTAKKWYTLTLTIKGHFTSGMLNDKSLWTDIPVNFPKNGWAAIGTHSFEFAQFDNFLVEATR

activation, inactive:
CCCSc1ncc(Cl)c(C(=O)Nc2ccc(S(=O)(=O)N3CCCC(C)C3)cc2)n1 (stereo not given) -9.17%, O=C(Nc1nc2c(F)cccc2s1)c1ccc(S(=O)(=O)N2CCOCC2)cc1 -4.23%, CCc1nnc(SCc2nc(-c3ccccc3Cl)oc2C)c2cc3sc(C)cc3n12 -6.01%, CCOc1ccc(C(=O)OCCN(CC)CC)cc1 -14.8%, CCOc1ccc(NC(=O)c2ccc3[nH]c(C)cc(=O)c3c2)cc1 -9.02%, Cc1ccc(C)c(N2CCN(C(=O)c3ccc(-c4nc(COc5ccccc5)c(C)o4)cc3)CC2)c1 -9.21%, COc1cccc(CNS(=O)(=O)c2ccc3[nH]c4c(c3c2)CCCCC4)c1 -23%, COc1ccc2c(CNCCc3ccccc3C)c(C(=O)O)n(Cc3ccccc3C)c2c1 -24.5%, CC1CCN(S(=O)(=O)c2ccc3c(c2)N(CC(=O)NCCN(C)C)C(=O)CO3)CC1 -2.8%, COc1ccc2c(c1)c1c(c(=O)n(-c3ccc(C)cc3)c(=O)n1CC(=O)c1ccc(Cl)cc1)n2C -16.7%, COc1ccc(NC(=O)Cn2cc(S(=O)(=O)N3CCC(C)CC3)c3ccccc3c2=O)cc1Cl -15.6%, Cc1ccc(C)c(CNS(=O)(=O)c2ccc3c(c2)C(C)(C)C(=O)N3C)c1 -6.62%, Cc1ccccc1C(=O)Nc1cccc(OCc2cc(=O)n3c4c(sc3n2)CCCC4)c1 8.28%, CCOC(=O)c1c(S(=O)(=O)N2CCCC(C(=O)NCc3ccc(F)cc3)C2)c(C)n(CC)c1C (stereo not given) -15.5%, COc1ccc(CN(Cc2ccco2)C(=O)COc2ccc(Cl)cc2C)cc1 -10.9%, Cc1ccc2c(c1)cc1c(=O)n(CC(=O)N(C)c3ccccc3)nc(C)n12 2.91%, O=C(CCCCn1c(=O)[nH]c2ccsc2c1=O)N1CCN(c2cccc(C(F)(F)F)c2)CC1 -7.87%, CC(=O)N1CCc2c(sc3c2c(=O)n(-c2cccc(Cl)c2C)c(=O)n3Cc2ccccc2C)C1 -24.5%, COc1cccc(-c2nnc(SCC(=O)N3CCCCC3)o2)c1 -14.7%, CCOC(=O)c1cccc(NC(=O)c2ccc3c(c2)nnn3CC)c1 -9.83%, Cc1ccc(C)c(Cn2c(=O)n(CC3CCC(C(=O)N4CCOCC4)CC3)c(=O)c3sccc32)c1 (stereo not given) -13.7%, COc1ccc(CNC(=O)C2CCCN(S(=O)(=O)N(C)c3ccc(F)cc3)C2)cc1OC (stereo not given) -6.31%, O=C(OCc1cc(=O)n2nc(-c3cccs3)sc2n1)c1cccc(Cl)c1 -17.7%, CCOC(=O)c1ccccc1NC(=O)Cn1nnc2sc3c(c2c1=O)CCCC3 -14%, Cc1ccc(C(C(=O)NC2CCCCC2)N(C)Cc2ccccc2)cc1 (stereo not given) 0.619%, Cc1ccc(NC(=O)Cn2c(=O)c(C(F)(F)F)nc3ccccc32)cc1C -7.85%, Cn1cc(-c2cc3n(n2)CCC(=O)N3CCCC(=O)NCc2ccc(F)cc2)c2ccccc21 -9.29%, Cc1cccc(C)c1NC(=O)c1nc(S(C)(=O)=O)ncc1N(Cc1ccc(C(C)(C)C)cc1)Cc1ccco1 -8.78%, CCOC(=O)c1ccccc1Nc1nc2ccc(C)cc2n2nnnc12 -9.48%, CCOc1ccc(NC(=O)c2oc3ccccc3c2NC(=O)C2CCCCC2)cc1 -8.69%, Cc1oc2c(c1C(=O)Nc1ccc(F)c(F)c1)C1=NCCN1C=N2 -16.9%, CCc1cccc(CC)c1NC(=O)CCS(=O)(=O)c1ccc(Br)s1 -5.71%, Cc1ccc(NC(=O)CSc2nc3nc(C)c(Cc4ccccc4)c(C)n3n2)cc1 -7.99%, CC(C)CNC(=O)N1CCN(S(=O)(=O)c2ccc3c(ccn3C)c2)CC1 -19.8%, COc1ccc(Cn2ccnc2SCC(=O)Nc2ccc3c(c2)OCO3)cc1 -9.57%, COc1ccc(-c2cc(C(F)(F)F)n3nc(C(=O)Nc4cc(C(F)(F)F)ccc4Cl)cc3n2)cc1OC -12.6%, CCCCCCCCCCCCCCCC(=O)O -10.2%, Cc1ccc2oc3c(c(=O)c2c1)C(c1ccccc1F)N(c1ccccn1)C3=O (stereo not given) -18.2%, COc1ccc(NC(=O)c2sc3nc4n(c(=O)c3c2C)CCC4)c(OC)c1 -19.4%, COc1ccccc1Cc1nc2ccccc2nc1SCC(=O)N1CCCCC1 8.03%, CCCCOc1ccccc1NC(=O)CC1Sc2ccccc2NC1=O (stereo not given) -6.36%, C=C1c2cccc(O)c2C(O)=C2C(=O)[C@]3(O)C(O)=C(C(N)=O)C(=O)[C@@H](N(C)C)[C@@H]3[C@@H](O)[C@H]12 -17.5%, Cc1noc(/C=C/c2ccccc2F)c1S(=O)(=O)N1CCC(C(=O)NCc2ccco2)CC1 -19.2%, COc1ccc(CCNC(=O)CCc2c(C)nc3cc(-c4ccc(Cl)cc4)nn3c2C)c(OC)c1 -10.7%, CCOC(=O)N1CCN(c2ncc3c(n2)CC(c2ccc(OC)c(OC)c2)CC3=O)CC1 (stereo not given) -42.1%, Cc1cc(C)cc(N2C(=O)CSC23C(=O)N(CC(=O)NC2CCCCC2)c2ccccc23)c1 (stereo not given) -22.1%, COc1ccc(C(=O)Nc2cccc(OCc3cc(=O)n4c5c(sc4n3)CCCC5)c2)cc1OC -4.98%, CCOC(=O)c1ccccc1NC(=O)N1CCCn2nc(C)cc21 -10.9%, Cc1ccccc1C(=O)Nc1nnc(S(=O)(=O)N2CCc3ccccc32)s1 -11.9%, CC(=O)N1CCCc2cc(S(=O)(=O)N3CCC(C(=O)N(C)C4CCCCC4)CC3)ccc21 -21.8%, CCc1ccc(NC(=O)Cn2c(=O)n(Cc3ccc(C)cc3)c(=O)c3cccnc32)cc1 4.36%, CNC(=O)C1CCN(C(=O)N2CC(C)Oc3ccc(Cl)cc32)CC1 (stereo not given) -9.37%, COc1ccc(OC)c(CCNC(=O)c2cnn(-c3ccccc3)c2-n2cccc2)c1 -19.9%, O=C(CCS(=O)(=O)c1cc(Br)cc2c1N(C(=O)C1CC1)CC2)N1CCN(c2ccccc2)CC1 -14.1%, Cc1ccccc1Cn1nnc2c(=O)[nH]c(C3CCCN(C(=O)c4ccc(C(C)(C)C)cc4)C3)nc21 (stereo not given) -15.2%, O=C(c1ccc2c(c1)N(Cc1cccc(Cl)c1)C(=O)c1ccccc1S2(=O)=O)N1CCCC1 -21.3%, CCOc1ccc(C2CC(=O)c3c([nH]c(C(=O)OCCOc4ccccc4)c3C)C2)cc1 (stereo not given) -31.9%, CCOC(=O)C1CCCN(C(=O)c2ccccc2NC(=O)c2nsc3ccccc23)C1 (stereo not given) -36.6%, Cc1nnc2c3ccccc3nc(N3CCN(c4ccccc4)CC3)n12 -5.88%, CCOCCCNC(=O)C1CCCN(c2ncnc3onc(C)c23)C1 (stereo not given) -6.01%
